MIC of clinical C. albicans isolates, CLSI broth microdilution (ranges and time not stated); higher = less susceptible. Call: susceptible or wild type [S] / resistant or non-wild type [R] by CLSI breakpoints or epidemiological cut-offs; intermediate and dose-dependent carry no call here (the paper groups them with resistant). '<=' and '>=' mark each drug's lowest and highest value, inferred; the source prints them plain. Isolates are numbered anew.
Experiments:
Assay in all cases: CLSI broth microdilution.
flucytosine = compound: Nc1[nH]c(=O)ncc1F [flucytosine]
voriconazole = compound: C[C@@H](c1ncncc1F)[C@](O)(Cn1cncn1)c1ccc(F)cc1F [voriconazole]
itraconazole = compound: CCC(C)n1ncn(-c2ccc(N3CCN(c4ccc(OCC5COC(Cn6cncn6)(c6ccc(Cl)cc6Cl)O5)cc4)CC3)cc2)c1=O [itraconazole]
posaconazole = compound: CC[C@@H]([C@H](C)O)n1ncn(-c2ccc(N3CCN(c4ccc(OC[C@@H]5CO[C@@](Cn6cncn6)(c6ccc(F)cc6F)C5)cc4)CC3)cc2)c1=O [posaconazole]
micafungin = compound: CCCCCOc1ccc(-c2cc(-c3ccc(C(=O)N[C@H]4C[C@@H](O)[C@@H](O)NC(=O)[C@@H]5[C@@H](O)[C@@H](C)CN5C(=O)[C@H]([C@H](O)CC(N)=O)NC(=O)[C@H]([C@H](O)[C@@H](O)c5ccc(O)c(OS(=O)(=O)O)c5)NC(=O)[C@@H]5C[C@@H](O)CN5C(=O)[C@H]([C@@H](C)O)NC4=O)cc3)no2)cc1 [micafungin]
fluconazole = compound: OC(Cn1cncn1)(Cn1cncn1)c1ccc(F)cc1F [fluconazole]
caspofungin = compound: CC[C@H](C)C[C@H](C)CCCCCCCCC(=O)N[C@H]1C[C@@H](O)[C@@H](NCCN)NC(=O)[C@@H]2[C@@H](O)CCN2C(=O)[C@H]([C@H](O)CCN)NC(=O)[C@H]([C@H](O)[C@@H](O)c2ccc(O)cc2)NC(=O)[C@@H]2C[C@@H](O)CN2C(=O)[C@H]([C@@H](C)O)NC1=O [caspofungin]
amphotericin B = compound: C[C@@H]1[C@H](O)[C@@H](C)/C=C/C=C/C=C/C=C/C=C/C=C/C=C/[C@H](O[C@@H]2O[C@H](C)[C@@H](O)[C@H](N)[C@@H]2O)C[C@@H]2O[C@](O)(C[C@@H](O)C[C@@H](O)[C@H](O)CC[C@@H](O)C[C@@H](O)CC(=O)O[C@H]1C)C[C@H](O)[C@H]2C(=O)O [amphotericin B]
anidulafungin = compound: CCCCCOc1ccc(-c2ccc(-c3ccc(C(=O)N[C@H]4C[C@@H](O)[C@@H](O)NC(=O)[C@@H]5[C@@H](O)[C@@H](C)CN5C(=O)[C@H]([C@@H](C)O)NC(=O)[C@H]([C@H](O)[C@@H](O)c5ccc(O)cc5)NC(=O)[C@@H]5C[C@@H](O)CN5C(=O)[C@H]([C@@H](C)O)NC4=O)cc3)cc2)cc1 [anidulafungin]

Test System | MIC (flucytosine) | MIC (voriconazole) | MIC (itraconazole) | MIC (posaconazole) | MIC (micafungin) | MIC (fluconazole) | MIC (caspofungin) | MIC (amphotericin B) | MIC (anidulafungin)
Candida albicans isolate 317 (Erg11p: V437I, Fur1p: WT, Tac1p: N896S,I895T,L695F,I558V,A377V,F189S,N174D,M170I,L131I,K87N) | ≤ 0.06 mg/L [S] | ≤ 0.008 mg/L [S] | ≤ 0.015 mg/L [S] | 0.015 mg/L [S] | 0.015 mg/L [S] | 0.25 mg/L [S] | 0.03 mg/L [S] | 0.25 mg/L [S] | 0.06 mg/L [S]
Candida albicans isolate 53 (Erg11p: V488I,E266D, Fur1p: WT, Tac1p: N896S,I895T) | ≤ 0.06 mg/L [S] | ≤ 0.008 mg/L [S] | 0.12 mg/L [S] | 0.06 mg/L [S] | 0.015 mg/L [S] | 0.5 mg/L [S] | 0.03 mg/L [S] | 0.5 mg/L [S] | ≤ 0.015 mg/L [S]
Candida albicans isolate 50 (Erg11p: E266D, Fur1p: WT, Tac1p: I558V,A377V,F189S,N174D,M170I,K87N) | ≤ 0.06 mg/L [S] | ≤ 0.008 mg/L [S] | 0.06 mg/L [S] | 0.03 mg/L [S] | 0.015 mg/L [S] | 0.25 mg/L [S] | 0.12 mg/L [S] | 1 mg/L [S] | 0.12 mg/L [S]
Candida albicans isolate 322 (Erg11p: V488I,Y401*,E266D, Fur1p: E51K, Tac1p: N896S) | ≤ 0.06 mg/L [S] | ≤ 0.008 mg/L [S] | ≤ 0.015 mg/L [S] | ≤ 0.008 mg/L [S] | 0.015 mg/L [S] | ≤ 0.12 mg/L [S] | 0.03 mg/L [S] | 0.25 mg/L [S] | 0.06 mg/L [S]
Candida albicans isolate 171 (Erg11p: E266D, Fur1p: WT, Tac1p: N896S) | 0.12 mg/L [S] | 0.03 mg/L [S] | 0.06 mg/L [S] | 0.06 mg/L [S] | 0.015 mg/L [S] | 2 mg/L [S] | 0.06 mg/L [S] | 0.5 mg/L [S] | 0.03 mg/L [S]
Candida albicans isolate 232 (Erg11p: D153E, Fur1p: WT, Tac1p: 858Y,N823K,I558V,F189S) | 0.12 mg/L [S] | ≤ 0.008 mg/L [S] | 0.03 mg/L [S] | 0.015 mg/L [S] | 0.015 mg/L [S] | 0.5 mg/L [S] | 0.015 mg/L [S] | 0.5 mg/L [S] | ≤ 0.015 mg/L [S]
Candida albicans isolate 173 (Erg11p: V488I,E266D, Fur1p: WT, Tac1p: N896S,T229I,M170V,S108N) | ≤ 0.06 mg/L [S] | 0.015 mg/L [S] | 0.06 mg/L [S] | 0.03 mg/L [S] | 0.015 mg/L [S] | 1 mg/L [S] | 0.03 mg/L [S] | 0.25 mg/L [S] | 0.03 mg/L [S]
Candida albicans isolate 292 (Erg11p: WT, Fur1p: WT, Tac1p: I558V,A377V,F189S,N174D,M170I,K87N) | ≤ 0.06 mg/L [S] | ≤ 0.008 mg/L [S] | ≤ 0.015 mg/L [S] | 0.015 mg/L [S] | 0.015 mg/L [S] | 0.25 mg/L [S] | 0.03 mg/L [S] | 0.25 mg/L [S] | ≤ 0.015 mg/L [S]
Candida albicans isolate 91 (Erg11p: K342R,E266D, Fur1p: WT, Tac1p: I558V,A377V,F189S,N174D,M170I,K87N) | ≤ 0.06 mg/L [S] | ≤ 0.008 mg/L [S] | 0.03 mg/L [S] | 0.015 mg/L [S] | 0.015 mg/L [S] | 0.25 mg/L [S] | 0.03 mg/L [S] | 0.25 mg/L [S] | 0.06 mg/L [S]
Candida albicans isolate 192 (Erg11p: V488I,E266D, Fur1p: WT, Tac1p: N896S,I558V,A377V,F189S,N174D,M170I,K87N) | ≤ 0.06 mg/L [S] | ≤ 0.008 mg/L [S] | 0.03 mg/L [S] | 0.015 mg/L [S] | 0.015 mg/L [S] | 0.5 mg/L [S] | 0.03 mg/L [S] | 0.25 mg/L [S] | 0.06 mg/L [S]
Candida albicans isolate 114 (Erg11p: E266D,G129A, Fur1p: WT, Tac1p: R869Q,L695F,I558V,A377V,F189S,M170V,L131I) | ≤ 0.06 mg/L [S] | ≤ 0.008 mg/L [S] | ≤ 0.015 mg/L [S] | 0.015 mg/L [S] | 0.015 mg/L [S] | 0.5 mg/L [S] | 0.015 mg/L [S] | 0.25 mg/L [S] | ≤ 0.015 mg/L [S]
Candida albicans isolate 72 (Erg11p: E266D, Fur1p: WT, Tac1p: N896S,I558V,A377V,F189S,N174D,M170I,K87N) | ≤ 0.06 mg/L [S] | ≤ 0.008 mg/L [S] | 0.03 mg/L [S] | 0.03 mg/L [S] | 0.015 mg/L [S] | 0.5 mg/L [S] | 0.03 mg/L [S] | 0.5 mg/L [S] | 0.06 mg/L [S]
Candida albicans isolate 80 (Erg11p: E266D, Fur1p: WT, Tac1p: N896S,I558V,A377V,F189S,N174D,M170I,K87N) | ≤ 0.06 mg/L [S] | ≤ 0.008 mg/L [S] | 0.06 mg/L [S] | 0.03 mg/L [S] | 0.03 mg/L [S] | 0.5 mg/L [S] | 0.12 mg/L [S] | 0.5 mg/L [S] | 0.12 mg/L [S]
Candida albicans isolate 241 (Erg11p: D153E, Fur1p: WT, Tac1p: N896S) | ≤ 0.06 mg/L [S] | ≤ 0.008 mg/L [S] | 0.06 mg/L [S] | 0.015 mg/L [S] | 0.015 mg/L [S] | 0.5 mg/L [S] | 0.03 mg/L [S] | 0.5 mg/L [S] | 0.06 mg/L [S]
Candida albicans isolate 41 (Erg11p: WT, Fur1p: WT, Tac1p: WT) | ≤ 0.06 mg/L [S] | ≤ 0.008 mg/L [S] | 0.03 mg/L [S] | 0.03 mg/L [S] | 0.015 mg/L [S] | 0.25 mg/L [S] | 0.03 mg/L [S] | 1 mg/L [S] | 0.06 mg/L [S]
Candida albicans isolate 347 (Erg11p: Y257H,A114S, Fur1p: R101C, Tac1p: A736V) | 0.25 mg/L [S] | 0.25 µg/mL | 0.25 mg/L [R] | 0.25 mg/L [R] | 0.015 mg/L [S] | 16 mg/L [R] | 0.03 mg/L [S] | 0.5 mg/L [S] | ≤ 0.015 mg/L [S]

Reference: the supplement of paper PMC9927326
